Laboratory results published in paper PMC4336329 (PLoS ONE, 2015).
About 2,200 (0.71%) of roughly 310,000 compounds showed an effect of 50% or more. Effects have a minus sign here. Some of the results follow.

The molecules below were run against human ether-à-go-go-related gene (hERG) potassium channel (human, UniProt Q12809) (assay: primary screen, population patch clamp on CHO cells stably expressing hERG).
human ether-à-go-go-related gene (hERG) potassium channel, sequence (Q12809 whole entry, looked up): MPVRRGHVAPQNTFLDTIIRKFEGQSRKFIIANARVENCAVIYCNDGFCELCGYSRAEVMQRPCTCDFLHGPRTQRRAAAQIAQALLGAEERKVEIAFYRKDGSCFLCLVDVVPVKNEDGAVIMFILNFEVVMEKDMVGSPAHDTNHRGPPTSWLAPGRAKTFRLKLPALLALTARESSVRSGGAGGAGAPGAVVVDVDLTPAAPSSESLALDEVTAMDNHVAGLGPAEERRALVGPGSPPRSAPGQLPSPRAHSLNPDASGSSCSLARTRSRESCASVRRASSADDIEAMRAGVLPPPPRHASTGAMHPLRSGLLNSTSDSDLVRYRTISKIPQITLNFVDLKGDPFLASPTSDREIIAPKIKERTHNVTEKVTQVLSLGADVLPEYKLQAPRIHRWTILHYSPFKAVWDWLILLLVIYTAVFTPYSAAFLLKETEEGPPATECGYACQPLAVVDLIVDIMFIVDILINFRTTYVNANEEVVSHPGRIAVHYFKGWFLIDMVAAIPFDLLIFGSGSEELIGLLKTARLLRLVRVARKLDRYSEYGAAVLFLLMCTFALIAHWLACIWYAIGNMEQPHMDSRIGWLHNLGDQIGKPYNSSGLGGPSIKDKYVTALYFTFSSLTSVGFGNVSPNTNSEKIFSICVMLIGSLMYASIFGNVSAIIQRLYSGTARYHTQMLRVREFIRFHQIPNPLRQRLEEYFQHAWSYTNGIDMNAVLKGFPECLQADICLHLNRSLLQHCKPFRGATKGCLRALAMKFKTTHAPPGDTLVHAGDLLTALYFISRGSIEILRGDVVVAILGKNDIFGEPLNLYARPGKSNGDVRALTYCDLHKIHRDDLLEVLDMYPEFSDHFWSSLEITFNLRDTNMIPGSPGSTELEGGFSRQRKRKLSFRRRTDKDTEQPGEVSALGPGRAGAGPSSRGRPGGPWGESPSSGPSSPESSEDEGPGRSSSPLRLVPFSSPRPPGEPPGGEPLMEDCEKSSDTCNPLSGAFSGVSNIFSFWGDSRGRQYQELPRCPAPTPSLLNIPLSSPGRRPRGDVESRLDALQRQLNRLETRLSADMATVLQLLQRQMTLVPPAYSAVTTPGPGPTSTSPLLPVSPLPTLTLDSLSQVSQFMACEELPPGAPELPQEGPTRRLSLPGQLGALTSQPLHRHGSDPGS

Row | Compound | hERG current change (%, negative = inhibition) at 1uM [%]
1 | Cc1ccc(C(=O)N/C(=C\c2ccc(Br)cc2)c2nc(=S)[nH][nH]2)cc1 | 2.96
2 | O=C1/C(=C/c2cccs2)SC(=S)N1CCCC(=O)N(CCO)c1ccccc1 | 16
3 | O=C(/C=C/c1ccccc1)NCCSCc1ccc(Cl)cc1 | 6.58
4 | CC1=C(C(=O)N2CCCCC2)C2(CCC(C)CC2)OC1=O (centres unmarked) | 0.853
5 | COc1ccc(CNC(=O)c2ccc(CS(=O)(=O)Cc3ccccc3F)o2)cc1 | 1.92
6 | CCOc1cc(-c2noc(CCC(=O)NC3CCCCC3)n2)ccc1OC | 0.932
7 | CC(=O)C1=C(C)N(CC2CC2)C(=O)N[C@H]1c1ccc(Br)cc1 | 7.78
8 | Cc1cnc(NC(=O)CCc2ccccc2)s1 | 10.7
9 | CCCCCCCC1(C)NC(=O)NC1=O (centres unmarked) | 11.1
10 | O=C(NCc1cccc(F)c1)C1CCC(=O)N(C2CC2)C1 (centres unmarked) | 13.7
11 | O=[N+]([O-])c1ccccc1N/N=C\c1ccccc1F | 14.6
12 | COCCn1c(Cc2ccccc2)nnc1SCC(=O)N1CCCCC1C (centres unmarked) | 10.4
13 | FC(F)(F)c1ccccc1CNCc1ccc2c(c1)OCO2 | 14.8
14 | COc1ccc(C(=O)NCC(=O)NCC(=O)OCc2ccc(Cl)cc2)cc1 | 15.8
15 | O=C(Nc1cccc(Cl)c1Cl)C1CCCC1 | -3.77
16 | Cc1csc2nc(O)c(C(=O)NCCN3CCOCC3)c(=O)n12 | 1.84
17 | CCOc1ccc(-c2noc(-c3ccncc3)n2)cc1OCC | 15.4
18 | c1ccc(C(c2nnnn2Cc2ccco2)N2CCN(c3nc4ccccc4s3)CC2)cc1 (centres unmarked) | 8.1
19 | CCOP(=O)(OCC)C(Nc1ccccc1)c1ccccc1C(F)(F)F (centres unmarked) | 19.9
20 | COc1cc2[nH]c(=O)c(C(=O)NCCCN3CCOCC3)c(O)c2cc1OC.Cl | 12.6
21 | Cc1ccc(N(CC(=O)Nc2ccc(F)c(Cl)c2)S(=O)(=O)c2c(C)noc2C)cc1 | 9.57
22 | CC(NS(=O)(=O)c1ccccc1)C(=O)Nc1nccs1 (centres unmarked) | 13.6
23 | Cc1cccn2c(=O)c3cc(C(=O)NC4CCCCC4C)n(C)c3nc12 (centres unmarked) | 9.38

Row | Compound | hERG current change (%, negative = inhibition) at 1uM [%]
24 | Cc1cccc(N2CCN(C(=O)c3ccc(NS(=O)(=O)c4ccc5[nH]c(=O)[nH]c5c4)cc3)CC2)c1C | 15.5
25 | COC(=O)COc1cccc(/C=N/NC(=O)CCSc2ccccc2)c1 | 14.1
26 | CCOC(=O)COc1ccc(/C=C2\C(=O)NC(=S)N(c3ccc(OC)cc3)C2=O)cc1OC | 15.3
27 | CCOc1ccc(NC(=O)CN(C)C(=O)/C=C/c2ccc(S(=O)(=O)N3CCCCCC3)cc2)cc1OCC | 19.3
28 | COc1ccccc1CNC(=O)CN1C(=O)NC(C)(c2ccc(C)cc2)C1=O (centres unmarked) | 7.07
29 | O=C1CCCN1CCC(=O)N1CCCC(N2CCN(c3ccccc3F)CC2)C1 (centres unmarked) | 10.7
30 | Cc1cccc(C(=O)N/N=C/c2ccc(OCC(=O)N3CCCCC3)cc2)c1 | 17.7
31 | CCN=C1SC(CC(N)=O)C(=O)N1CC (centres unmarked) | 15
32 | Cc1ccc2nc(-c3ccc(NC(=O)COC(=O)c4ccc(Br)o4)cc3)sc2c1 | -0.107
33 | COc1cc(C2NC(=O)NC3=C2C(=O)OC3)cc(OC)c1OC (centres unmarked) | 8.02
34 | CCOc1ccc(-n2nc3c(=S)[nH]nc(C)c3c2C)cc1 | 2.44
35 | CC1Oc2ccccc2C=C1/C=N/NC(=O)c1ccccc1 (centres unmarked) | 7.86
36 | O=C(O)c1ccc2c(=O)n(-c3ccc(F)cc3)c(=S)[nH]c2c1 | 6.82
37 | CNC(=S)N(Cc1ccco1)Cc1cc2cc3c(cc2[nH]c1=O)OCCO3 | 0.423
38 | COc1ccc(C2=NS(=O)(=O)N(C)C(C(=O)NCc3ccccn3)=C2)cc1OC | 5.02
39 | CC(=O)Nc1ccc(NS(=O)(=O)c2cc(Cl)sc2Cl)cc1 | 5.86
40 | COc1ccc(C2CC(=O)N(CC(=O)NCC3CCCO3)c3ccccc3S2)cc1 (centres unmarked) | -6.66
41 | COc1cccc(Cl)c1NC(=O)N1CCc2c([nH]c3ccccc23)C1C(F)(F)F (centres unmarked) | 13
42 | Cc1c(C(=O)OCC(=O)Nc2cccc(S(N)(=O)=O)c2)oc2c1ccc1ccccc12 | 8.82
43 | CCOC(=O)C1CN(S(C)(=O)=O)c2cc(CC(=O)OC)ccc2O1 (centres unmarked) | 4.64
44 | NC(=O)c1ccsc1NC(=O)CSc1ccccc1F | -0.041
45 | CCN(CCO)Cc1csc2ccccc12.Cl | 3.69
46 | CC1CCN(C(=O)c2ccc(S(=O)(=O)N(C)C)cc2)C(C)C1 (centres unmarked) | 7.65

Row | Compound | hERG current change (%, negative = inhibition) at 1uM [%]
47 | O=C(NCCSc1c[nH]c2ccccc12)C1CC1 | 2.45
48 | COc1ccc(CN(C)CC(=O)NC2CCCc3ccccc32)cc1OC (centres unmarked) | -5.59
49 | O=C(Nc1nc(-c2ccc(Cl)cc2Cl)cs1)C1CCCO1 (centres unmarked) | 15
50 | CCOC(=O)CN1CC23C=CC(O2)C(C(=O)Nc2ccc(F)cc2)C3C1=O (centres unmarked) | 8.66
51 | Cc1n[nH]c(C)c1S(=O)(=O)N1CCCC(C(=O)Nc2ccc3c(c2)OCCO3)C1 (centres unmarked) | 6.36
52 | CC(=O)N1c2ccc(S(=O)(=O)N3CCCC(C(=O)N4CCC(C)CC4)C3)cc2CC1C (centres unmarked) | 5.47
53 | O=C(CCN1CCOCC1)N1CCCC(Nc2ccc(F)cc2)C1 (centres unmarked) | 16.1
54 | O=C(CSc1nc2scc(-c3ccccc3)c2c(=O)[nH]1)N1CCCCC1 | 14.3
55 | CCN(C(=O)CSc1nnnn1-c1ccccc1)c1c(N)n(Cc2ccccc2)c(=O)[nH]c1=O | 15.9
56 | C=CCOC(=O)C1=C[C@H](c2cn(C(C)=O)c3ccccc23)C[C@H](OCc2ccc(CO)cc2)O1 | 14.6
57 | O=C1CC(c2ccc(O)cc2)Oc2ccccc21 (centres unmarked) | 4.37
58 | COc1ccc(-c2oc3ccc(-c4cc(OC)c(OC)c(OC)c4)cc3c2-c2ccc(OC)cc2)cc1 | 16.1
59 | Cc1cc(C)nc(SCc2nnc(SCC(=O)N3CCOCC3)o2)n1 | 4.34
60 | CCOC(=O)CN1CC23C=CC(O2)C(C(=O)NCCc2ccccc2)C3C1=O (centres unmarked) | 11.1
61 | CN(CCOC(=O)/C=C/c1ccco1)Cc1ccccc1 | 9.76
62 | CC1CCCCN1Cc1ccc(-c2nn[nH]n2)cc1 (centres unmarked) | 19.1
63 | O=C(Nc1ccc(Cl)cn1)c1ccc(Br)c(S(=O)(=O)N2CCCCC2)c1 | 13.3
64 | CN(C)/C=N/c1nc(-c2ccc3ccccc3c2)cs1 | 9.84
65 | CCCCCc1ccc(-c2cn(Cc3ccc(C(=O)c4ccccc4)cc3)nn2)cc1 | 13.7
66 | O=C(NC1CCCCC1)NC1(C(=O)NCCCN2CCOCC2)CCCCC1 | 4.58
67 | CC(C)N1CC(C(=O)Nc2nc3ccccc3s2)CC1=O (centres unmarked) | 6.73
68 | CNc1nnc(-c2ccco2)s1 | 14.3
69 | CCc1ccc(OCC(=O)Nc2ccc(S(=O)(=O)Nc3cc(C)on3)cc2)c(Br)c1 | 14.2

Row | Compound | hERG current change (%, negative = inhibition) at 1uM [%]
70 | CCCSc1nc(N)nc(-c2cccs2)c1C#N | 4.01
71 | Clc1ccc(-n2c(SC/C=C/c3ccccc3)nnc2-c2cccnc2)cc1 | 3.6
72 | CCC(=O)N(CCc1ccc(S(N)(=O)=O)cc1)C1CC(=O)N(c2ccc(OC)cc2)C1=O (centres unmarked) | 9.87
73 | C=CCC1(C#N)C(=S)NC2=C(C(=O)CC(C)(C)C2)C1c1ccc(Br)cc1 (centres unmarked) | 12.3
74 | Cc1ccc(S(=O)(=O)N2[C@@H](c3ccc(F)cc3)C(C(=O)O)=CC[C@H]2c2ccc(Cl)cc2)cc1 | 5.44
75 | O=C(CN1C2CCCC1CC(NC(=O)C1CCCCC1)C2)Nc1ccccc1C(F)(F)F (centres unmarked) | 3.36
76 | COc1ccc(OC[C@@H](O)CNC(=O)c2cccc3c2C(=O)c2ccc(Cl)cc2S3(=O)=O)cc1 | -0.421
77 | CCCN(CCC)C(=O)C1CCC(CNS(=O)(=O)c2cccc3nsnc23)CC1 (centres unmarked) | -16.1
78 | COc1ccccc1-c1cc(C(=O)N/N=C/c2cccs2)c2ccccc2n1 | 10.7
79 | O=C(CN1CCN(Cc2ccccc2)CC1)Nc1cccc(Cl)c1 | -27.7
80 | CN(CC(=O)Nc1cccc(S(=O)(=O)N(C)C)c1)Cc1ccccc1 | 16.6
81 | CC(C)CCN1CCC(n2nccc2NC(=O)C2CCOC2)CC1 (centres unmarked) | 16.3
82 | O=C(c1ccc2snnc2c1)N1CCN(c2ccccc2)CC1 | -5.25
83 | Cc1ccc(C2C(S(C)(=O)=O)=C(O)C(=O)N2c2ccccc2)cc1.Nc1ccccc1 (centres unmarked) | 3.91
84 | Cc1ccc(COc2ccc(-c3nnco3)cc2)cc1 | 15.1
85 | Cc1nn(C)c(C)c1NC(=O)c1ccnn1C | -3.47
86 | CCOC(=O)c1nnc2ccnn2c1N | 18.3
87 | O=C1NC(=O)N(c2ccccc2)C(=O)/C1=C\C=C\c1ccccc1 | 12.1
88 | Cc1ccc(NC(=O)CSCCc2ccccn2)nc1 | 7.11
89 | COc1ccccc1NC(=O)c1sc2nc3n(c(=O)c2c1C)CCC3 | 13.1
